# Measured values published in patent publication US20240190989A1 (BEIGENE SWITZERLAND, published 2024).
# T1: cyno CD137 ECD-mIgG2a (monkey (Macaca mulatta gene; called …)
# T1 chain: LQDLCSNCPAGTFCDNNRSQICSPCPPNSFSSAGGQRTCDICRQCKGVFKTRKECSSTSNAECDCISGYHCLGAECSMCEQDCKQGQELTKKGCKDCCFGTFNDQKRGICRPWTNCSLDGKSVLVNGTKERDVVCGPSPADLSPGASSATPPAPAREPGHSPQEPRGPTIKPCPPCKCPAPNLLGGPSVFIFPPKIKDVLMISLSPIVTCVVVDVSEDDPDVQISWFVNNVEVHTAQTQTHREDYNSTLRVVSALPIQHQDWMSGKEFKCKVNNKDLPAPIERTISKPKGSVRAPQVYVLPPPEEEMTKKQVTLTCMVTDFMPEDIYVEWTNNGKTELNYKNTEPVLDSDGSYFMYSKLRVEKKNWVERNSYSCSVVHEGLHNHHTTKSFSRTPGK
# How the values were obtained:
# [1] = target: T2, full-length human CD137 on cells (Hut78/huCD137, HEK293 transfectants, JK-NFKB-CD137) (human, UniProt Q07011 24-255); experiment: flow cytometry on live Hut78/huCD137 cells
# T2 construct: also called native CD137; TNFRSF9
# T2 sequence (Q07011 24-255 limits assumed): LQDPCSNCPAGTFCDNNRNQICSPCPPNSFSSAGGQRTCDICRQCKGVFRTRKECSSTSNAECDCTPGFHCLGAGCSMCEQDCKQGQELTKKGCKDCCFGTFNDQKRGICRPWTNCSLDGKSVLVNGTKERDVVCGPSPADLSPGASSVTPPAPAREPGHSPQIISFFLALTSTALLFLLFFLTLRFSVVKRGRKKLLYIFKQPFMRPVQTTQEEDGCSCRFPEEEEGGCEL
# [2] = target: T1, cyno CD137 ECD-mIgG2a; experiment: SPR, antibody captured, cyno CD137 ECD-mIgG2a as analyte
# [3] = target: T3, human CD137 ECD-mIgG2a (human); experiment: SPR, antibody captured, human CD137 ECD-mIgG2a as analyte
# T3 construct: ECD 24-183 of huCD137 fused to mouse IgG2a Fc; also called huCD137-mIgG2a; huCD137
binder,measurement,setting,value
BGA-5623 fused with wild type IgG1 Fc (Fc fusion) EVQLLESGGGLVQPGGSLRLSCAASGFTVSAEDVGWVRQAPGKGLEWVSAILDKGGSTYYAESVKGRFTISRDNAKNTLYLQMSSLRAEDTAVYYCARIVYHAGGGVTFDTRGQGTQVTVSS[not shown - human IgG1 Fc with changes],EC50,[1],2.97 µg/mL
same,Kd,[2],19.6 nM
same,koff,[2],0.00254 s⁻¹
same,kon,[2],130000 M⁻¹ s⁻¹
same,Kd,[3],23.8 nM
same,koff,[3],0.00503 s⁻¹
same,kon,[3],212000 M⁻¹ s⁻¹
